Measurements taken from PubChem BioAssay AID504832 (National Center for Advancing Translational Sciences (NCATS), 2011).
Screen size: about 310,000 compounds; about 18,000 (5.8%) were called active. The shares of active, inactive and inconclusive entries below differ from those in the screen. Calls come from the whole dose curve; as a rule, active = well fitted inhibition curve with a large enough effect; inconclusive = small, poorly fitted or top-dose-only effect, or another doubt; inactive = no such curve, though single readings can be large or run the other way. No potency is given beside an inconclusive call; the fits are too rough.

assay: Primary qHTS for delayed death inhibitors of the malarial parasite plastid, 48 hour incubation; conditions: P. falciparum luciferase growth in erythrocytes; series mostly up to 28.7 µM
Procedure, shortened: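 Compounds are pin-transferred into medium, infected erythrocytes (2% hematocrit, 0.1% parasitemia final) are added, and plates sit one parasite generation at 37 C in 5% CO2. Detection reagent is then added and luminescence measured.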
Potency is the fitted concentration of half-maximal effect; tags give direction and shape of the fitted curve.

Row | Compound | Potency
1 | CCOC(=O)C(=NC(C)C)NNc1cc(Cl)ccc1Cl | inconclusive [inhibitor, single point]
2 | CCC(=O)Nc1nc2ccccc2n1Cc1ccc(C)cc1 | active: 2.94 µM
3 | COc1ccc(/C=C(\C#N)C(=O)OCC(=O)Nc2c(C)cccc2C)cc1 | inactive
4 | Cn1c2cc([N+](=O)[O-])sc2c2cnn(Cc3ccccc3F)c(=O)c21 | inconclusive [inhibitor, full curve, poor fit]
5 | CCC1=C(OC(=O)N(CC)CC)N2C(=O)OC(=NCC(=O)OC)[C@]2(Cc2ccccc2)[C@H]2C1=CC[C@H]1C(=O)N(CC(=O)OC)C(=O)[C@H]12 | active: 11.7 µM
6 | Cc1c(-c2ccccc2)oc2c(C(=O)OCC(=O)Nc3ccc(F)cc3)cccc2c1=O | inactive
7 | CC1CCN(c2cc(N3CCOCC3)c([N+](=O)[O-])cc2F)CC1 | inconclusive [inhibitor, partial curve, poor fit]
8 | NC(=O)N/N=C/c1coc2ccc(O)cc2c1=O | inconclusive [inhibitor, partial curve, poor fit]
9 | Cc1c(C)c(C)c(C(=O)C2CCN(c3ccc([N+](=O)[O-])cn3)CC2)c(C)c1C | inconclusive [inhibitor, single point]
10 | c1cc2c(cc1CCNC1C3CC4CC(C3)CC1C4)OCO2 (stereo not given) | inconclusive [inhibitor, single point]
11 | Cn1c(=O)c2c(SCC(=O)N3CCOCC3)nc(-c3ccccc3F)nc2n(C)c1=O | inconclusive [inhibitor, single point]
12 | CN1/C(=C\C(=O)c2ccccc2Cl)c2ccccc2CC1(C)C | inconclusive [inhibitor, single point]
13 | CCc1ccccc1NC(=O)CNC(=O)CCNC(=O)Nc1ccccc1 | inconclusive [inhibitor, single point]
14 | CCOC(=O)Oc1c(OC)cc(C(=O)O[C@H]2C[C@H]3CN4CCc5c([nH]c6cc(OC)ccc56)[C@@H]4C[C@H]3[C@@H](C(=O)OC)[C@@H]2OC)cc1OC | active: 1.61 µM
15 | COc1ccc(C(=O)NCc2nnc(SCC(=O)Nc3ccccc3OC)n2C)cc1 | inactive
16 | O=C(Cc1c(F)cccc1Cl)Nc1ccccn1 | inactive
17 | N=C1/C(=C\c2ccc(OC(=O)c3ccc(F)cc3)cc2)C(=O)N=C2SC(N3CCOCC3)=NN12 | inactive
18 | Cc1cccc(N(C(=O)c2snc(C(N)=O)c2N)C(C(=O)NCC2CCCO2)c2ccc3ncccc3c2)c1 (stereo not given) | inconclusive [inhibitor, partial curve]
19 | CCOc1ccc(-c2nnc3n2N=C(c2ccc(OC)cc2)CS3)cc1 | inconclusive [inhibitor, single point]
20 | CCOC(=O)C(NC(=O)CC(C)C)(Nc1sc(C)c(CC)c1C#N)C(F)(F)F (stereo not given) | inconclusive [inhibitor, partial curve]
21 | Cc1noc(-c2ccc(Cl)cc2)c1C(=O)O/N=C(\N)c1ccc(C(C)(C)C)cc1 | inconclusive [inhibitor, partial curve]
22 | CN(Cc1cnn(C)c1)Cc1nc(C(c2ccccc2)c2ccccc2)no1 | inconclusive [inhibitor, single point]

Row | Compound | Potency
23 | CCCCCCN1C=C/C(=C\C=C(C#N)C#N)c2ccccc21 | inconclusive [inhibitor, partial curve]
24 | Cc1c(C)c2c(OCC(=O)N3CCC[C@H]3C(=O)O)cc3c(c2oc1=O)CCC(C)(C)O3 | inconclusive [inhibitor, single point]
25 | O=C(NCC1OCCc2ccccc21)c1ccc(NC(=O)c2ccc(Cl)cc2)cc1 (stereo not given) | inconclusive [inhibitor, partial curve]
26 | C/C(=C\C(=O)Nc1cc(C)on1)c1ccccc1 | inconclusive [inhibitor, single point]
27 | Cc1ccc(S(=O)(=O)Nc2cccc(C(=O)NC3CCN(Cc4ccccc4)CC3)c2)cc1F | inconclusive [inhibitor, single point]
28 | COc1ccc(OCC(=O)Nc2ccc3c(c2)nc(CCN2CCCCC2)n3C)cc1 | inconclusive [inhibitor, partial curve]
29 | COc1ccc(NS(=O)(=O)c2cc(NC(=O)c3cccs3)ccc2N2CCOCC2)cc1 | inconclusive [inhibitor, partial curve, poor fit]
30 | C[C@H](NC(=O)c1nc[nH]c1C(=O)OCc1ccccc1)c1ccccc1 | inconclusive [inhibitor, single point]
31 | CN(CC1COc2ccccc2O1)C(=O)c1ccc(Cl)c(S(=O)(=O)N2CCCCCC2)c1 (stereo not given) | inconclusive [inhibitor, single point]
32 | CC(=NCCc1c(C)[nH]c2ccc(OCc3ccccc3)cc12)C1=C(O)CC(c2ccccc2)CC1=O (stereo not given) | inconclusive [inhibitor, full curve, poor fit]
33 | COc1ccc2[nH]c(=O)c(CN(CC3CCCO3)C(=S)Nc3ccc(C)cc3)cc2c1 (stereo not given) | inactive
34 | CCC(=O)c1ccc(OCC(=O)OCC(=O)N2CCc3ccccc3C2)cc1 | inconclusive [inhibitor, single point]
35 | O=C(O)CCNc1ccc(NCCC(=O)O)c2c1C(=O)c1ccccc1C2=O | inconclusive [inhibitor, partial curve, poor fit]
36 | CCOc1ccc(NC(=O)CN(C)C(=O)CC(NC(=O)c2ccccc2)c2ccccc2)cc1OCC (stereo not given) | inconclusive [inhibitor, partial curve, poor fit]
37 | Cc1cc(C)c(-c2csc(NC(=O)c3cc([N+](=O)[O-])ccc3N3CCOCC3)n2)c(C)c1 | inconclusive [inhibitor, partial curve, poor fit]
38 | Cc1nn(C)cc1S(=O)(=O)N1CCN(c2ccccc2F)CC1 | inactive
39 | CCOc1ncccc1C(=O)Nc1cc(S(=O)(=O)N2CCCCC2)ccc1OC | inconclusive [inhibitor, partial curve, poor fit]
40 | COc1ccc(Cl)cc1NC(=O)C1CCN(C(=O)Nc2ccccc2)CC1 | inconclusive [inhibitor, single point]
41 | CCc1ccc(NC(=O)[C@H](Cc2c[nH]c3ccccc23)NC(=O)[C@@H]2Cc3ccccc3CN2)cc1 | inconclusive [inhibitor, partial curve]
42 | COc1ccc(OC)c(N)c1 | active: 9.28 µM
43 | Ic1ccccc1CN[C@@H]1C2CCN(CC2)[C@@H]1C(c1ccccc1)c1ccccc1 | active: 2.62 µM
44 | CCOc1ccc(/C(O)=C2\C(=O)C(=O)N(c3ccc(OC)cc3)C2c2ccccc2[N+](=O)[O-])cc1 (stereo not given) | inconclusive [inhibitor, single point]

Row | Compound | Potency
45 | COc1cccc(CN2CCN(C(c3ccccc3)c3ccccc3)CC2)c1O | inconclusive [inhibitor, full curve]
46 | Cc1cc(C)c(S(=O)(=O)c2ccccc2)c(OC(=O)c2c(Cl)cc(Cl)cc2Cl)n1 | active: 3.7 µM
47 | CC(=O)O[C@H]1C[C@@H]2CC[C@@H]3[C@H](CC[C@@]4(C)[C@H]3C[C@H]([N+]3(C)CCCCC3)[C@@H]4OC(C)=O)[C@@]2(C)C[C@@H]1N1CCCCC1 | inconclusive [inhibitor, partial curve]
48 | CC(NC(=O)c1ccccc1Cl)C(=O)N1CCN(Cc2ccc3c(c2)OCO3)CC1 (stereo not given) | inactive
49 | COc1ccc(C(C(=O)NCc2ccccc2)N(Cc2ccco2)C(=O)c2snc(C(N)=O)c2N)cc1OC (stereo not given) | active: 10.4 µM
50 | Cc1cc(OCC(O)CNC(C)(C)C)ccc1Cl (stereo not given) | inconclusive [inhibitor, partial curve]
51 | Cc1cc2nc(/C=C/c3nc4cc(C)c(C)cc4[nH]3)[nH]c2cc1C | active: 0.465 µM
52 | c1ccc2nc(-c3ccc(-n4ccnc4)cc3)ccc2c1 | inactive
53 | COc1cc(Cl)ccc1OCc1cc(C(=O)N(C)CCc2cnn(C)c2)no1 | inactive
54 | Cc1cc(/C=C(\C#N)C(=O)NCc2ccco2)c(C)n1-c1ccc(C(=O)O)cc1 | inactive
55 | Cc1ccc(-n2c(C)nn(CC#N)c2=O)cc1 | inconclusive [inhibitor, partial curve, poor fit]
56 | CCc1ccc2nc(N3CCN(C(=O)C(C)(C)C)CC3)sc2c1 | inactive
57 | Cn1c(CN2CCOCC2)nnc1SCC(=O)Nc1cc(Cl)ccc1Cl | inactive
58 | O=C(c1ccccc1)N1CCN(S(=O)(=O)c2cccc(NS(=O)(=O)c3ccccc3)c2)CC1 | inactive
59 | CCn1nnnc1SCC(=O)N1N=C(c2cccs2)CC1c1cccs1 (stereo not given) | inactive
60 | COc1ccc(/C=C/C(=O)C2CC2)cc1COc1c(C)cccc1C | inconclusive [inhibitor, partial curve, poor fit]
61 | CC1=NN(c2ccccc2)C(=O)/C1=C\c1cc(C)n(-c2cccnc2)c1C | inconclusive [inhibitor, single point]
62 | N#CCSc1nc2c(cc1C#N)CCCCCC2 | inactive
63 | Cc1ccc(NC(=O)CN(C)C(=O)COC(=O)C2=COCCO2)cc1 | inconclusive [inhibitor, single point]
64 | CCCn1c(=O)c2c(nc3n2CCCN3CCc2ccccc2)n(C)c1=O | inconclusive [inhibitor, partial curve]
65 | O=C(NCC1COc2ccccc2O1)c1cccc(S(=O)(=O)N2CCCCC2)c1 (stereo not given) | inconclusive [inhibitor, single point]
